Assay results: ChEMBL document CHEMBL4888484, “Replenishing the malaria drug discovery pipeline: Screening and hit evaluation of the MMV Hit Generation Library 1 (HGL1) against asexual blood stage Plasmodium falciparum ,using a nano luciferase reporter read-out” (2022)
The campaign covered roughly 150,000 compounds. About 540 (0.36%) showed an effect of 50% or more. Some of the results follow.

Each compound was assayed on Plasmodium falciparum (assay: Primary screen in NF54 nanoGlo assay, in single point, at 2uM, 72h; a lower Z score goes with more inhibition). Settings: timepoint 72 hour.
Assay type: functional, Erythrocyte

Row | SMILES | % Inhibition [%] | Z score
1 | CCc1noc(C)c1CNC(=O)N1CCS(=O)(=O)C[C@H]1C1CCC1 | -12 | 2.29
2 | O=C(C1CC1C1CCC1)N1CCC12CCC2 (stereo unspecified) | -2 | 0.18
3 | O=S1(=O)CCN(Cc2noc(-c3ccco3)n2)CC1 | -2 | 0.25
4 | Cc1nc(C(=O)NC(C)C(=O)N2c3ccccc3CC2C)c(C)o1 (stereo unspecified) | -13 | 1.85
5 | C[C@H]1CCCCN1Cc1ncnn1-c1cc(S(N)(=O)=O)ccc1F | -1 | 0.23
6 | O=C(Cc1cccs1)N1CC[C@H](Oc2ncc(F)cn2)C1 | -13 | 2.02
7 | Cc1noc(C)c1CCC(=O)N1CCC[C@H](c2cc3n(n2)CCCN(C)C3=O)C1 | -6 | 1.16
8 | Cc1cccc(CNC(=O)[C@H](C)Oc2ccc(=O)n(-c3cc(Cl)ccc3C)n2)c1 | -13 | 2.01
9 | O=C(c1ccco1)N1CCC(n2ccnc2-c2ccccn2)CC1 | -8 | 0.82
10 | Cc1nc(N2CCN(C)CC2)ncc1-c1cc(=O)[nH]c(N2CCN(c3ccccc3)CC2)n1 | -8 | 1.16
11 | CCc1c(C)nn(CC(=O)Nc2ccc(OC)c3nonc23)c1C | 0 | -0.01
12 | CC(Cn1cccn1)NC(=O)C1CC1c1ccc(Br)cc1 (stereo unspecified) | -1 | 0.08
13 | O=C(NCC(F)(F)F)Nc1ccccc1N1CC2CCC1C2 (stereo unspecified) | -3 | 0.59
14 | O=C(CCS(=O)(=O)c1ccccc1)N1CCC(c2nnc(-c3ccc(F)cc3)o2)CC1 | 14 | -1.9
15 | Cc1ccc(S(=O)(=O)c2c(C)c(C)n(CC(C)C)c2NC(=O)c2ccccc2F)cc1 | -10 | 1.91
16 | Cc1cc2c(cc1NC(=O)NC1CCCC1)N(C)S(=O)(=O)N2C | -5 | 0.54
17 | CC(C)=CCN1C[C@@H]2CC[C@H]1CN(C(=O)c1ccc3[nH]c(C)c(C)c3c1)C2 | 2 | -0.34
18 | Cc1sc(NS(=O)(=O)c2ccccc2)nc1C(=O)N1CCN(S(C)(=O)=O)CC1 | -13 | 1.88
19 | c1cc2c(cc1CC1CCNCC1)OCCO2 | 6 | -0.84
20 | Clc1ccc(OCc2nc3ccccc3s2)c(C2CCCCC2)c1 | -11 | 1.43
21 | O=C(c1cscn1)N1CCO[C@H]2CCC[C@H]21 | 27 | -3.84
22 | CC[C@]1(O)CCCN(c2nc(C)c(C)cc2C(N)=O)C1 | -11 | 1.42

Row | SMILES | % Inhibition [%] | Z score
23 | Cc1sc2nc(CN3CCC(C)CC3)nc(N3CCC(N(C)C(C)C)CC3)c2c1C | -3 | 0.66
24 | O=C(N[C@H](c1ccccc1)C(F)F)N1CCC2(C=Cc3ccccc3O2)CC1 | -7 | 0.81
25 | c1cnc(N2CCC(c3nnc4n3CCCC4)CC2)nc1 | -6 | 0.99
26 | CCc1nnsc1C(=O)Nc1cccc(S(=O)(=O)N2CCCCC2)c1 | 7 | -1.32
27 | COc1cc2c(cc1OC)CN(C(=O)C1CC1C)CC2 (stereo unspecified) | -4 | 0.46
28 | CC(NC1C=CCCCCC1)c1cnn(C)c1 (stereo unspecified) | -3 | 0.3
29 | Cc1cc(C)n(-c2ccc(CC(=O)NCC3CCCCC3)cc2)n1 | -18 | 2.77
30 | CC(C)(C(=O)Cn1cnc2c(-c3ccccc3)nsc2c1=O)c1ccccc1 | -1 | 0.1
31 | O=C(c1ccc2nccnc2c1)N1CC[C@H](n2ccnn2)C1 | -11 | 1.42
32 | c1ccc(C(c2ccccc2)n2c(-c3nc4ccccc4o3)nc3ccccc32)cc1 | -1 | 0.21
33 | CC1(C)CC(Nc2ncnc3ccc(F)cc23)CC(C)(C)N1 | -1 | 0.17
34 | C#CCN(CCCCC#N)Cc1cccc(C)n1 | -11 | 1.57
35 | CNC(=O)c1ccc(NC2CC3CC3C2)nn1 (stereo unspecified) | 6 | -0.99
36 | Cc1n[nH]c(C)c1CCCN(C)C(=O)c1cn2cccnc2n1 | 4 | -0.72
37 | COCc1cc(O)nc(N2CC[C@H](NC(=O)OCCF)C2)n1 | -10 | 1.3
38 | CCN(CC(=O)Nc1ccc(NC(C)=O)cc1)C(=O)c1ccc2c(c1)C(=O)N(c1ccccc1Cl)C2=O | 7 | -1.25
39 | Cc1c[nH]c(C(=O)N(C)C[C@H](C)N2CCOCC2)n1 | -16 | 2.07
40 | Fc1ccc(-c2nn(Cn3cc(Cl)cn3)c(-c3ccc(F)cc3)c2Cl)cc1 | 29 | -3.28
41 | O=C(c1cc2c(s1)CCCC2)N1CCS(=O)(=O)CC1 | -6 | 0.63
42 | CCN(CC(N)=O)C(=O)c1sccc1C | -10 | 1.73
43 | COc1cccc2ncn([C@@H](C)CN3CCCC3)c(=O)c12 | 6 | -0.76
